Test results from paper PMC5297747, “Pnserpin: A Novel Serine Protease Inhibitor from Extremophile Pyrobaculum neutrophilum” (International Journal of Molecular Sciences, 2017).

Target: T1, Pnserpin (Pyrobaculum neutrophilum, UniProt B1YBN4 1-393)
T1 construct: full length gene synthesized and cloned into pET-28a(+); Purified protein ran as a single band of 44 kDa; also called serpin homologue of Pyrobaculum neutrophilum; source: E. coli BL21-CodonPlus (DE3)-RIL, purified (nickel-chelating chromatography)
T1 sequence (looked up): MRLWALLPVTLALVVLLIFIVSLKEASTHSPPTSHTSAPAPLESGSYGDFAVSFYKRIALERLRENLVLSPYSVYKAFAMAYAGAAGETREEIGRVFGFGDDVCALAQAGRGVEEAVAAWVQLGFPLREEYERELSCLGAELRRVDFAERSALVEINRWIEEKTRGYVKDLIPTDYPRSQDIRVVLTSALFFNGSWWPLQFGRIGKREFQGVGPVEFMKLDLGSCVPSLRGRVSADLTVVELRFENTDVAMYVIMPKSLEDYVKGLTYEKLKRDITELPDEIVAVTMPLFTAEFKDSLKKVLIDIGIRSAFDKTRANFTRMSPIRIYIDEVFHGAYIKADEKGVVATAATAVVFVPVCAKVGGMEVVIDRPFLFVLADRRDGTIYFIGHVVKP
Test: progress curve of protease inhibition; 40 °C; buffer B (100 mM HEPES-NaOH pH 7.5, 200 mM NaCl, 10 mM CaCl2, 0.01% triton X-100, 0.1% glycerol); 1 mM Suc-AAPF-pNA or MeO-SucAAPV-pNA as substrate; various concentrations of Pnserpin; absorption at 410 nm; kass = kunc × (1 + [S]/KM)
Conditions: both partners purified

B1: porcine pancreatic elastase (enzyme, UniProt P00772 27-266, looked up)
chain: VVGGTEAQRNSWPSQISLQYRSGSSWAHTCGGTLIRQNWVMTAAHCVDRELTFRVVVGEHNLNQNDGTEQYVGVQKIVVHPYWNTDDVAAGYDIALLRLAQSVTLNSYVQLGVLPRAGTILANNSPCYITGWGLTRTNGQLAQTLQQAYLPTVDYAICSSSSYWGSTVKNSMVCAGGDGVRSGCQGDSGGPLHCLVNGQYAVHGVTSFVSRLGCNVTRKPTVFTRVSAYISWINNVIASN
notes: porcine pancreatic elastase; printed molecular weight 24 kD
Question: B1 was tested. Which kon did it give?
Answer: 22700 M⁻¹ s⁻¹
